The campaign covered roughly 45,000 compounds. About 200 (0.44%) were called active. About 7% were inconclusive and are not listed. Calls come from the whole dose curve; as a rule, active = well fitted activation curve with a large enough effect; inconclusive = small, poorly fitted or top-dose-only effect; inactive = no such curve, though single readings can be large or run the other way. The list shows a part of the results.
assay: qHTS of TDP-43 Inhibitors: NCGC Sytravon Library Screen; details: yeast TDP-43 toxicity rescue, BacTiter-Glo growth, 24 h; series mostly up to 46.1 µM; growth rescue (activation): at the top concentration; note: 0% is about no effect; nearly all actives have a fitted effect of over 55% in size
Outline: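 TDP-43-expressing yeast, pregrown in raffinose, seeded at OD600 0.02 in galactose medium with compound for 24 hr at 30 deg C. Growth read by BacTiter-Glo luminescence, so rescue of toxicity appears as activation.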

Compound | growth rescue (activation)
CC(=O)c1cccc(NC(=O)CCn2c(=O)oc3ccccc32)c1 | inactive: -0.694%
Cc1cc(C)cc(-c2nnc(SCc3ccc(C(=O)O)cc3)o2)c1 | inactive: 3.45%
COc1cc(OC)c(N(C)S(=O)(=O)c2cccc(C(=O)NC3=NCCS3)c2)cc1Cl | inactive: 28.5%
CC(=O)c1ccc(O)c(CO)c1 | inactive: -32.4%
Cc1[nH]c(=S)sc1Cc1ccc(F)cc1 | inactive: 29.3%
COc1ccc(NC(=O)c2ccc(NCC3CCCO3)c([N+](=O)[O-])c2)cc1 (stereo not drawn) | inactive: -10.9%
CC1=NOC(=O)/C1=C\c1ccc(-c2ccc(Cl)c(C(=O)O)c2)o1 | inactive: -0.794%
N#Cc1cccc(NC(=O)CSc2nnc(-c3n[nH]c4ccccc34)o2)c1 | inactive: 3.6%
CCOC(=O)C1(CCOc2ccccc2)CCN(Cc2ccc(COC)o2)CC1 | inactive: -0.214%
COc1ccccc1N1CCN(C(=O)c2ccc3c(c2)N(Cc2cc(C)ccc2C)C(=O)c2ccccc2S3(=O)=O)CC1 | inactive: 14.1%
O=C(NCCc1ccccc1)c1cc(=O)c2ccccc2o1 | inactive: 26.8%
NC(=O)c1ccc(-n2c(CCC(=O)O)ccc2-c2cccs2)cc1 | inactive: 14.8%
COc1ccc(OCCC(=O)NC2CCCCC2)cc1 | inactive: 13.8%
C=CCn1c(SCC(=O)N2CCOCC2)nc(O)c(Cc2ccccc2)c1=O | inactive: 1.22%
FC(F)(F)c1ccccc1NC(=S)N1CCc2ccccc2C1 | inactive: 40.1%
CCn1nc(CC(=O)Nc2nnc(CC(=O)N3CCCCC3)s2)c2ccccc2c1=O | inactive: 32.9%
CCN(CC)C(=O)CNc1ccc(C(F)(F)F)cc1[N+](=O)[O-] | inactive: 19.1%
CC(/C=N\NC(=O)Cn1c(C)nc2ccccc21)=C\c1ccccc1 | inactive: 1.08%
COC(=O)c1ccc(COC(=O)CNS(=O)(=O)c2ccc(C)cc2)cc1 | inactive: 14.4%
CCCCOC(=O)Nc1nnc(/C=C/c2ccc(OC)cc2)s1 | inactive: -14%
Cc1ccc(NC(=O)COc2cccnc2[N+](=O)[O-])cc1S(=O)(=O)N1CCCCC1 | inactive: 6.52%
CC1=C(C(N)=O)C(c2ccc(Cl)c(Cl)c2)n2ncnc2N1 (stereo not drawn) | inactive: 3.75%

Compound | growth rescue (activation)
O=[N+]([O-])c1cc(S(=O)(=O)NCCN2CCOCC2)ccc1Sc1nnnn1-c1ccccc1 | inactive: 17%
CCCCOc1ccc(C(=O)NNC(=O)c2cnccn2)cc1OC | inactive: -5.56%
C=CCOc1ccccc1CN(CCc1ccccc1)C(=O)c1cccc(S(C)(=O)=O)c1 | inactive: 1.68%
CCOC(=O)c1ccc(NC2Nc3cc(C)nn3S2)cc1 (stereo not drawn) | inactive: 23.3%
CC(=O)Nc1ccc(S(=O)(=O)NCC2CCC(C(=O)NCc3ccccc3)CC2)cc1 (stereo not drawn) | inactive: -3.41%
C=CCNC(=O)c1ccccc1NC(=O)c1ccccc1N(C)S(C)(=O)=O | inactive: 11.4%
Cc1ccc(N(C)S(=O)(=O)c2cccc(C(=O)N(C)Cc3cnn(-c4ccccc4)c3)c2)cc1 | inactive: 41.1%
Cc1ccc2c(CN3CCN(Cc4ccccc4)CC3)cc(=O)oc2c1C | inactive: -10.2%
Cc1ccc(C(=O)Nc2cccc(-c3cn4ccccc4n3)c2)cc1 | inactive: 4.96%
CCn1c(SCC(=O)Nc2ccc(N3CCOCC3)cc2)nnc1-c1ccncc1 | inactive: 1.57%
Cc1cccc(C)c1NC(=O)CN1C(=O)N(C)Cc2ccccc21 | inactive: 1.52%
CCc1nc2c(OCCOc3ccc(F)cc3)cccn2c1N(C=O)Cc1ccccc1 | inactive: -15.2%
CC(=O)c1cccc(NC(=O)C2CCCN(S(=O)(=O)c3cccc4nonc34)C2)c1 (stereo not drawn) | inactive: 3.19%
CCN1CCCC1CN(Cc1cc2ccc(C)cc2[nH]c1=O)C(=S)Nc1ccccc1OC (stereo not drawn) | inactive: 5.95%
Cc1nnc(SCc2c(Cl)cccc2Cl)n(N)c1=O | inactive: 15.6%
COc1cccc(CN(C)Cc2c(O)ccc3ccccc23)c1 | inactive: -16.3%
Nc1nnc(Cc2ccccc2F)s1 | inactive: 15.3%
Cn1c(=O)c([N+](=O)[O-])c(NCc2ccccc2)c2ccccc21 | inactive: -35.4%
CCC1CCCCN1C(=S)NC(=O)c1cccs1 (stereo not drawn) | inactive: 2.77%
Cc1ccc(CN2CCC(C(=O)Nc3ccc(Oc4cccnc4)cc3)CC2)cc1 | inactive: 4.91%
COC(=O)Nc1nnc(-c2ccco2)s1 | inactive: 0.949%
O=C(Nc1cccc([N+](=O)[O-])c1)N1CCN(c2ccccc2)CC1 | inactive: 0.53%

Compound | growth rescue (activation)
CCOc1ccccc1NC(=O)CN1CCN(C(=O)C2CCCO2)CC1 (stereo not drawn) | inactive: 6.79%
CN1CCCN(Cc2nc(-c3cccc(C(F)(F)F)c3)no2)CC1 | inactive: -7.9%
CSc1nc2ncc(C#N)cn2n1 | inactive: -6.4%
COc1cccc(C(NC(C)=O)c2nc(-c3ccccc3OC)cs2)c1 (stereo not drawn) | inactive: 4.29%
C=CCNC(=O)c1c(C(F)(F)F)nn(C)c1Cl | inactive: -4.42%
O=C(CCc1ccccc1)NNC(=O)Cc1ccc(Cl)cc1 | inactive: 13.9%
CCCS(=O)(=O)NC(=O)C1(C)CCN(C(=O)c2cc(-c3cccs3)oc2C)C1 (stereo not drawn) | inactive: 7.66%
COC(=O)Nc1c(C(=O)OC)cc(OC)c(OC)c1OC | inactive: -5.67%
COc1cnc(-c2ccccn2)nc1NC(C)C | inactive: 3.28%
CCOc1cc(C2C(C(C)=O)=C(O)C(=O)N2CCc2c[nH]c3ccccc23)ccc1O (stereo not drawn) | inactive: -1.51%
Cc1cccc(NC(=S)NCCN2CCOCC2)c1 | inactive: 17.3%
Cc1nc2c(OCc3ccccc3)cccn2c1N(C)C(=O)C1CCCCC1 | inactive: 5.13%
Cc1ccc(-n2c(=S)[nH]c3[nH]ncc3c2=O)cc1 | inactive: -0.846%
COc1ccc2cc(C(=O)NCc3ccccc3)[nH]c2c1 | inactive: 7.15%
COc1ccccc1CNC(=O)CN1C(=O)NC2(CCCCCC2)C1=O | inactive: 3.96%
CN(C(=O)COc1ccc(S(=O)(=O)N2CCOCC2)cc1[N+](=O)[O-])C1CCS(=O)(=O)C1 (stereo not drawn) | inactive: 30.5%
CCOC(=O)NN1C(=O)c2ccccc2NC1c1ccccc1O (stereo not drawn) | inactive: 9.16%
Cc1cc2ncn(CCC(=O)NC3CCCC3)c2cc1C | inactive: -4.91%
CCOP(=O)(OCC)C(NC(=O)c1ccc(OC)c(OC)c1)c1ccccc1 (stereo not drawn) | inactive: 0.423%
CC(=O)Nc1ccc(Nc2nc3ccc(Cl)cc3n3cnnc23)cc1 | inactive: 5.02%
CC1(C)CC(CNCCC(c2ccc(F)cc2)c2ccco2)CCO1 (stereo not drawn) | inactive: 1.96%
Fc1ccccc1-n1ncc2c1ncn1nc(COc3ccc(Cl)cc3)nc21 | inactive: 2.9%

Compound | growth rescue (activation)
CN1CCN(C(=O)c2cc(S(=O)(=O)Nc3ccccc3F)c(Cl)cc2Cl)CC1 | inactive: -28.4%
Cc1ccc(C(=O)c2cn[nH]c2-c2ccccc2O)cc1 | inactive: 9.31%
CC(=O)c1ccc2c(c1)C1C=CCC1C(C(=O)O)N2 (stereo not drawn) | inactive: 6.7%
COc1ccc(OC)c(C(=O)c2ccc(C(=O)Nc3ccc(NC(C)=O)cc3)cc2)c1 | inactive: 18.5%
COc1ccc(C2c3[nH]c4ccccc4c3CCN2CCCn2cccn2)c(F)c1 (stereo not drawn) | inactive: 16.2%
OCC(O)CSc1nc(-c2ccccc2)nc2c1CCC2 (stereo not drawn) | inactive: 5.41%
CN(Cc1ccccc1)C(=O)C1CCCN1S(=O)(=O)c1ccc2c(c1)n(C)c(=O)c(=O)n2C (stereo not drawn) | inactive: 14.5%
O=C(c1cc(Cl)ccc1[N+](=O)[O-])n1cnc2ccccc21 | inactive: 30.6%
COCCNC(=O)c1ccc(Cl)c(S(=O)(=O)Nc2cccc(C)c2C)c1 | inactive: 11.7%
NS(=O)(=O)c1ccc(NC(=O)Cn2nc(C(=O)O)c3ccccc3c2=O)cc1 | inactive: -5.28%
O=C(C1CCCN(S(=O)(=O)c2ccc(F)cc2)C1)N1CCOCC1 (stereo not drawn) | inactive: -0.899%
CC1(C(=O)NS(=O)(=O)c2cccs2)CCN1C(=O)c1cccc(F)c1 (stereo not drawn) | inactive: 5.41%
Cc1sc2nc(SCC(=O)Nc3cccc(C(=O)O)c3)[nH]c(=O)c2c1C | inactive: -9.27%
COc1cc(C(=S)N2CCOCC2)cc(OC)c1O | inactive: 28.7%
O=C(Nc1cccc(Cl)c1)C1=CC=CN2CCS(=O)(=O)N=C12 | inactive: -3.55%
COCC(=O)N/N=C/c1c(C)[nH]n(-c2ccccc2)c1=O | inactive: -13.3%
COc1ccc(NCc2nnc(SCC(=O)Nc3ccc(OC)cc3)n2C)cc1 | inactive: -3.57%
Nc1nonc1-n1nnc(C(=O)N/N=C/c2cccc(Cl)c2Cl)c1CN1CCCC1 | inactive: 18.1%
COc1ccc(CNC(=O)CN(C)S(=O)(=O)c2ccccc2)cc1 | inactive: 9.09%
Cn1ccc(C(=O)OCC(=O)Nc2ccccc2)n1 | inactive: -16.9%
CC1CC(C)CN(S(=O)(=O)c2ccc(C(=O)N(c3ccccn3)C3CCCCC3)cc2)C1 (stereo not drawn) | inactive: 25.6%
CCCCC(=O)Nc1ccc2c3c(cccc13)CC2 | inactive: 14.9%

Compound | growth rescue (activation)
CC(C)CC(=O)NS(=O)(=O)c1ccc(NS(C)(=O)=O)cc1 | inactive: 15.2%
O=C(C1CCN(S(=O)(=O)N2CCOCC2)CC1)N1CCN(c2ccccc2)CC1 | inactive: 26.8%
COc1cc(C(=O)Oc2ccccc2/C=N/NC(=O)c2ccc(C)cc2)cc(OC)c1OC | inactive: -6.53%
O=C1c2ccccc2C(=O)N1Cc1ccccn1 | inactive: 0.485%
COc1ccc(NC(=O)COC(=O)CC23CC4CC(CC(C4)C2)C3)c([N+](=O)[O-])c1 | inactive: -8.78%
COc1ccc(C(CC(=O)c2ccccc2)CC(=O)c2ccccc2)cc1OC | inactive: 0.265%
Nc1nc(SCc2ccc(Br)cc2)[nH]c(=O)c1-c1ccccc1 | inactive: -16.5%
CC(C)[C@H](NC(=O)c1ccccc1)C(=O)OCC(=O)Nc1sccc1C(N)=O | inactive: 6.04%
O=C(NC(Cc1c[nH]c2ccccc12)C(=O)O)c1ccc(F)cc1 (stereo not drawn) | inactive: 6.95%
CC(=O)Nc1ccc(NC(=O)CNC(=O)c2cccc(C)c2)cc1 | inactive: -7.49%
CCN(C(=O)CN1C(=O)NC(c2ccccc2)(c2ccccc2)C1=O)c1ccccc1 | inactive: 22.2%
CSCC[C@H](NC(=O)Cc1c(C)c2c(cc(C)c3c(C)coc32)oc1=O)C(=O)O | inactive: 8.15%
Cc1ccc2nc(SCC(=O)Nc3ccc4[nH]c(=O)[nH]c4c3)[nH]c2c1 | inactive: 32.5%
COc1ccc(NC(=O)N2CCC(C(=O)c3ccc4c(c3)OCCO4)CC2)cc1 | inactive: 7.79%
Cn1c(N)c(C(=O)COC(=O)/C=C/c2ccc(Cl)cc2Cl)c(=O)n(C)c1=O | inactive: -23.1%
CCCCCC1CC(=O)C=C(C)C1C(=O)OC (stereo not drawn) | inactive: -4.46%
CN(C(=O)CC1C(=O)NCCN1Cc1ccc(F)c(F)c1)C1CCOCC1 (stereo not drawn) | inactive: 4.73%
COC(=O)c1cn(C(=O)c2ccc(C)cc2C)c2ccccc12 | inactive: -0.133%
CC(C)c1ccc(NC(=S)Nc2ccc(OC(F)(F)F)cc2)cc1 | inactive: 11.7%
Cc1nc2c(OCc3ccc(C(F)(F)F)cc3)cccn2c1N(C)Cc1cccs1 | inactive: 24.5%

Reference: PubChem BioAssay AID1347073 (National Center for Advancing Translational Sciences (NCATS), 2019)
